Laboratory results published in PubChem BioAssay AID504332 (National Center for Advancing Translational Sciences (NCATS), 2011).
Among all 350,000 compounds or so, about 31,000 (8.9%) were called active. This list was built around the results that the source calls inconclusive (neither active nor inactive); the mix of calls is not that of the screen. Calls follow the shape of the dose curve; as a rule, active = well fitted inhibition curve with a large enough effect; inconclusive = small, poorly fitted or top-dose-only effect; inactive = no such curve, though single readings can be large or run the other way. Potencies beside an inconclusive call are fits to weak or partial responses and may not hold up.

Biological target: Histone-lysine N-methyltransferase EHMT2 (Homo sapiens) (UniProt Q96KQ7)
Test: qHTS Assay for Inhibitors of Histone Lysine Methyltransferase G9a; also: nearly all actives have a fitted effect of over 75% in size
Details: G9a H3K9 monomethylation, AlphaScreen, 2 h; activity, negative = inhibition: at 59 µM (top of the series) unless noted
Summary of the method: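 Methyltransferase reactions run at room temperature for 2 h (20 nM enzyme, 500 nM biotin-H3K9 peptide, 20 uM SAM) after a 15 min compound preincubation; product detected by AlphaScreen beads and anti-H3K9me1 antibody.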
% is scaled to controls: 0 for no effect and ±100 for the full control effect; potency is read from the fitted curve at half-maximal effect; tags tell the direction and shape of the fitted curve.

Chain of UniProt Q96KQ7 (Q96KQ7 whole entry, looked up): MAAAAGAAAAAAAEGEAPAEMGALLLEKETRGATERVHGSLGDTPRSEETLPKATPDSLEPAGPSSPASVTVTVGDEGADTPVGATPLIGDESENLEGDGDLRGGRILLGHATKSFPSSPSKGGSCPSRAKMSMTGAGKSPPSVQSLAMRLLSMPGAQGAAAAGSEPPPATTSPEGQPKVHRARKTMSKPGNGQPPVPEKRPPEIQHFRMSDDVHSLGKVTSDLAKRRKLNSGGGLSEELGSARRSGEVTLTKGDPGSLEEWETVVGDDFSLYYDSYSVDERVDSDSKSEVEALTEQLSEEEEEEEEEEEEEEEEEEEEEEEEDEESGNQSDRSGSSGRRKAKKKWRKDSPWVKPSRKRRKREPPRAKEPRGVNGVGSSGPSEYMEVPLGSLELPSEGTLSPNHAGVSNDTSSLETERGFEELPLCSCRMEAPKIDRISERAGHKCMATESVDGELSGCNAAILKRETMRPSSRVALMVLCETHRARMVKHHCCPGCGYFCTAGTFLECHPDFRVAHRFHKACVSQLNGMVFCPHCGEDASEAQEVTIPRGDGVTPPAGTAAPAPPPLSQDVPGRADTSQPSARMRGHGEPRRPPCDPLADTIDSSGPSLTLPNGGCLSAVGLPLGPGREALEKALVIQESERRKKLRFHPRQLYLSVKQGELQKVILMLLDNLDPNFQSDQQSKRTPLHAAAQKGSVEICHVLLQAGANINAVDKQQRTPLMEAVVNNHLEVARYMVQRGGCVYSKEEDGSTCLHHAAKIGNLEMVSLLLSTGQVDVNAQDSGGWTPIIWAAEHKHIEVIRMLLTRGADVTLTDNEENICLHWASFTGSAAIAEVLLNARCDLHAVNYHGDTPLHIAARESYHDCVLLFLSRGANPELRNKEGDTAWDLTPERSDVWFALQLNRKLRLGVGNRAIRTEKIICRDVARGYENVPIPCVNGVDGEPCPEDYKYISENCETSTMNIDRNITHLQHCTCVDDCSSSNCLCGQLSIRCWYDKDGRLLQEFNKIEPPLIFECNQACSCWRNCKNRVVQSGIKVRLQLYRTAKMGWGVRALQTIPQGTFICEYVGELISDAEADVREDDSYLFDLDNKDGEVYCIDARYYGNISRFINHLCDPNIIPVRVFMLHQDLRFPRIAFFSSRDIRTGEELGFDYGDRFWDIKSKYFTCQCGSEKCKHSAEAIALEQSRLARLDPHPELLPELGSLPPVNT

| SMILES | activity, negative = inhibition | Potency |
| --- | --- | --- |
| Cc1ccc(S(=O)(=O)NCC(=O)OCC(=O)Nc2ccc3c(c2)OCCO3)cc1 | inactive: 3.68% [at 2.33 µM] |  |
| CC(=O)NC(CC(=O)Nc1cccc(S(=O)(=O)N2CCCC2)c1)c1ccccc1 (stereo not drawn) |  | inactive |
| Cc1ccc(Nc2nc(N3CCOCC3)c3ccccc3n2)cc1 |  | inconclusive: 15.8 µM [inhibitor, partial curve] |
| O=C(CNCc1ccco1)Nc1cccc(S(=O)(=O)N2CCCCC2)c1 |  | active: 3.55 µM |
| Cc1cncn1CCc1nc2c3ccccc3nc(SCC(=O)Nc3ccccc3F)n2n1 |  | inactive |
| COc1ccc(OC)c(S(=O)(=O)NCCc2csc3nc(-c4ccccc4)nn23)c1 |  | inactive |
| Cc1cccc(N2CCN(C(=O)c3ccc4c(c3)c(C)c(C)n4C)CC2C)c1 (stereo not drawn) |  | active: 44.7 µM |
| Cc1ccc(C(=O)N2CCN(C3c4cccc5cccc(c45)C3NS(=O)(=O)c3ccccc3)CC2)cc1 (stereo not drawn) |  | inconclusive: 70.8 µM [inhibitor, partial curve] |
| COCCn1nnnc1C(c1ccc(OC)cc1)N1CCN(c2ccccc2F)CC1 (stereo not drawn) |  | inconclusive: 25.1 µM [inhibitor, single point] |
| Cc1ccc(NC(=O)COc2ccccc2C(N)=O)cc1S(=O)(=O)N1CCCCCC1 |  | inconclusive: 8.91 µM [inhibitor, full curve, poor fit] |
| CCc1c(C)nc(N)n2c(SCC(=O)N3CCCC(C)C3)nnc12 (stereo not drawn) |  | inconclusive: 5.01 µM [inhibitor, partial curve, poor fit] |
| COCCC(=O)N1CCC(C(=O)Nc2ccc(Oc3ccccc3)nc2)CC1 |  | inactive |
| Cc1sc2nc(CSCC(=O)Nc3ccc(N4CCOCC4)cc3)[nH]c(=O)c2c1C |  | inactive |
| CC(C)CNC(=S)NNC(=O)CC(C)O (stereo not drawn) |  | inconclusive: 39.8 µM [inhibitor, partial curve, poor fit] |
| Cc1cccn2cc(CCNC(=O)c3ccc(Br)o3)nc12 |  | inconclusive: 20 µM [inhibitor, partial curve, poor fit] |
| O=C(c1cc(-n2cnnc2)ccc1Cl)N1CCN(c2nc(-c3ccccc3)cs2)CC1 |  | inactive |
| O=[N+]([O-])c1ccc(/C=[N+](\[O-])[C@@H]2CCCC[C@@H]2/[N+]([O-])=C/c2ccc([N+](=O)[O-])o2)o1 |  | active: 50.1 µM |
| O=C(CN1CCN(C(=O)c2cccs2)CC1)NC1CCCCC1 |  | inconclusive: 89.1 µM [inhibitor, single point] |
| CCOc1ccccc1CNC(=O)C1CCCN(S(=O)(=O)c2ccc3c(ccn3C)c2)C1 (stereo not drawn) |  | inactive |
| Cc1ccn2cc(C(=O)Nc3cccc(C(=O)NC4CC4)c3)nc2c1 |  | inconclusive: 89.1 µM [inhibitor, single point] |
| COc1ccc(OC)c(NC(=O)C2CC(=O)N(Cc3ccco3)C2)c1 (stereo not drawn) |  | inconclusive: 89.1 µM [inhibitor, single point] |
| CC(=O)c1cccc(NC(=O)CSc2ccc(-c3sc(C)nc3C)nn2)c1 |  | inconclusive: 3.55 µM [inhibitor, partial curve, poor fit] |
| Nc1n[nH]c(N)c1N=Nc1cccc(F)c1 |  | inconclusive: 89.1 µM [inhibitor, single point] |
| N#CC1=C(N)OC2=C(C(=O)CCC2)C1C1CC=CCC1 (stereo not drawn) |  | inconclusive: 0.1 µM [inhibitor, full curve, poor fit] |
| CC(=O)N1CCc2cc(Br)cc(S(=O)(=O)CCC(=O)Nc3ccc(C)cc3Cl)c21 |  | inconclusive: 31.6 µM [inhibitor, partial curve, poor fit] |

| SMILES | activity, negative = inhibition | Potency |
| --- | --- | --- |
| Cc1ccc(C(=O)CSc2nc3cc(S(=O)(=O)N4CCOCC4)ccc3o2)cc1 |  | active: 31.6 µM |
| CN(C)CCCN(C(=O)c1ccc(S(=O)(=O)N(C)Cc2ccccc2)cc1)c1nc2cc3c(cc2s1)OCO3 |  | active: 50.1 µM |
| CCc1ccc(NC(=S)Nc2ccc3[nH]c(=O)[nH]c3c2)cc1 |  | inconclusive: 56.2 µM [inhibitor, partial curve, poor fit] |
| CCOc1ccccc1NC(=O)COc1ccc(S(=O)(=O)N2CCCC2)cc1 |  | inactive |
| Cc1ccc2nc(SCC(=O)c3ccc(Cl)cc3)nc(=O)n2c1 |  | inconclusive: 44.7 µM [inhibitor, partial curve] |
| Cc1ccc(CNC(=O)CCSCCC(=O)NCc2ccc(C)cc2)cc1 |  | inactive |
| CCCC1(C(=O)OCC)NC(c2ccc(N(C)C)cc2)C2C(=O)N(c3ccccc3)C(=O)C21 (stereo not drawn) |  | active: 8.91 µM |
| CCS(=O)(=O)N1CCN(C2Cc3ccccc3C2)CC1 |  | active: 7.94 µM |
| COc1ccc(S(=O)(=O)N2CCC3(CC2)CC(=O)c2ccccc2O3)cc1 |  | inactive |
| Cn1c(-c2ccccc2)cnc1SCc1nc2ccccc2c(=O)[nH]1 |  | inconclusive: 25.1 µM [inhibitor, single point] |
| O=C1CCCN1CCCn1cnc2c([nH]c3ccc(F)cc32)c1=O |  | inconclusive: 70.8 µM [inhibitor, partial curve] |
| Cc1ccc(O)c(C(=O)c2cnc3c(c2)COc2ccccc2-3)c1 |  | inconclusive: 25.1 µM [inhibitor, single point] |
| COc1ccc(C(=O)NC(=O)COC(=O)c2ccc(C)o2)cc1 | inactive: -9.58% [at 12.7 µM] |  |
| CCC(C)NC(=O)c1ccccc1SC (stereo not drawn) |  | inconclusive: 50.1 µM [inhibitor, partial curve] |
| CCn1c(COc2ccc3c(c2)OCO3)nnc1SCC(=O)O |  | inconclusive: 28.2 µM [inhibitor, partial curve, poor fit] |
| COc1ccc(S(=O)(=O)N(CC(C)C)CC(C)C)c2cccnc12 |  | inconclusive: 89.1 µM [inhibitor, partial curve, poor fit] |
| N#CC1(N2CCN(C(=O)c3ccccc3)CC2)CCCCC1 |  | inactive |
| O=C(CC12CC3CC(CC(C3)C1)C2)NC(=S)N1CCCCC1 |  | active: 11.2 µM |
| c1ccc(-c2cnc(-c3ccccc3)nc2)cc1 |  | inconclusive: 1.12 µM [inhibitor, full curve, poor fit] |
| Cc1cc(C)cc(N2CC(c3nc4ccccc4n3C)CC2=O)c1 (stereo not drawn) |  | inconclusive: 35.5 µM [inhibitor, partial curve, poor fit] |
| O=S(=O)(N/N=C/c1c(F)cccc1Cl)c1ccccc1 |  | inconclusive: 5.62 µM [inhibitor, single point] |
| O=C(CCCn1c(SCC(=O)c2ccccc2)nc2ccccc2c1=O)NCC1CCCO1 (stereo not drawn) |  | inconclusive: 50.1 µM [inhibitor, partial curve] |
| C=CSc1sc(Cl)c(N2CCOCC2)c1[N+](=O)[O-] |  | inactive |
| CCCN(CCO)Cc1ccc(Cl)c(Cl)c1 |  | inconclusive: 3.16 µM [inhibitor, single point] |
| Cc1cccc2sc(N(CCCN(C)C)C(=O)COc3ccccc3)nc12 |  | inconclusive: 22.4 µM [inhibitor, partial curve, poor fit] |

| SMILES | activity, negative = inhibition | Potency |
| --- | --- | --- |
| CCOC(=O)c1ccc(NC(=O)CSCc2ccco2)cc1 | inconclusive: -59.3% [inhibitor] |  |
| Cc1ccccc1NNC(N)=S |  | active: 11.2 µM |
| COCc1[nH][nH]c(=O)c1C=Nc1ccc(F)cc1F |  | active: 20 µM |
| Cc1cccc(C=Nc2ccc3c(c2)oc2ccccc23)c1O |  | inactive |
| C=CCN(Cc1nc(-c2cc(OC)ccc2OC)oc1C)C1CCS(=O)(=O)C1 (stereo not drawn) |  | inconclusive: 31.6 µM [inhibitor, partial curve] |
| C=CCNC(=O)/C(C#N)=C/c1ccc(OS(=O)(=O)c2ccc(C)cc2)c(OC)c1 |  | inactive |
| COc1ccc(N2CCN(C(C)C(=O)N(C)Cc3ccccc3)CC2)cc1 (stereo not drawn) |  | active: 50.1 µM |
| COc1ccc(C2N(c3cc(Cl)ccc3OC)C(=O)C3CCCN32)cc1 (stereo not drawn) |  | inconclusive: 89.1 µM [inhibitor, single point] |
| CCCCCC(=O)Nc1ccc(N2CCN(C(=O)CCC)CC2)cc1 |  | inconclusive: 31.6 µM [inhibitor, partial curve, poor fit] |
| CCC(=O)N1c2ccc(S(=O)(=O)CCC(=O)Nc3ccc(Br)c(C)c3)cc2CC1C (stereo not drawn) |  | active: 14.1 µM |
| CN(C(=O)COC(=O)/C=C/c1ccccc1[N+](=O)[O-])c1ccccc1 |  | inactive |
| O=C(CN1CCN(c2ccccc2O)CC1)Nc1ccc2c(c1)CCC2 |  | active: 70.8 µM |
| COC(=O)/C(=C\Nc1ccc(Cl)cc1Cl)NC(=O)c1ccc(Cl)cc1Cl |  | inactive |
| OC(COC(c1ccccc1)c1ccccc1)CN1CCCCC1 (stereo not drawn) |  | inactive |
| CCN(Cc1ccccc1)C(=O)c1sc2nc3n(c(=O)c2c1C)CCCC3 |  | inconclusive: 12.6 µM [inhibitor, partial curve, poor fit] |
| CCOc1ccc(CNS(=O)(=O)c2ccc(-c3coc(C)n3)cc2)cc1OC |  | inactive |
| CCCCN(C)CCCNC(=O)Cn1ncc2c3ccccc3n(Cc3cc(C)ccc3C)c2c1=O |  | inactive |
| Cc1cnc(C(=O)OCC(=O)N2CCN(S(=O)(=O)c3ccc(Cl)cc3)CC2)cn1 |  | inconclusive: 70.8 µM [inhibitor, partial curve, poor fit] |
| CCc1ccc2c(c1)-c1ccccc1S(=O)(=O)N2CC(=O)N1CCCCC1 |  | inactive |
| Cc1ccc(/C(O)=C2\C(=O)C(=O)N(CCN(C)C)C2c2ccccc2F)cc1 (stereo not drawn) |  | inconclusive: 100 µM [inhibitor, single point] |
| O=[N+]([O-])c1cc(Cl)ccc1N1CCCC1 |  | active: 20 µM |
| Cc1cc(C)nc(NS(=O)(=O)c2ccc(NC(=O)C3(c4ccc([N+](=O)[O-])cc4)CCCC3)cc2)n1 |  | inconclusive: 22.4 µM [inhibitor, single point] |
| O=C(NCc1cccs1)c1ccc(Cn2c(SCc3ccc(F)cc3)nc3cccnc32)cc1 |  | inactive |
